Part of at least one peptide drawing is inferred or uncertain, most often the ends. Some entries repeat one wording, which the source may state once for all of them. Where a SMILES comes first, the peptide text is derived from it. [ ]: non-standard residue; d: D form.
What was measured:
[1] = test system: rat's hind paw heat-edema; assay: heat-induced paw edema in pentobarbital-anesthetized rat (58° C. water, 1 minute); type: in vivo; conditions: for anti-inflammatory activity, result in words: heat-edema, relative to saline controls; for Heat-Edema % Saline Values: ten minutes before 58° C. water for 1 minute, edema measured 30 minutes after heat
Procedure: The inventive peptides were dissolved either in saline or saline acidified with 0.1 M acetic acid and injected intravenously into a pentobarbital-anesthetized rat. The rat's hind paw was then immersed in 58°-60° C. water for 1 minute and the increase in paw weight, as an index of edema and swelling, was measured 30 minutes later. For some peptides, the ability of the substances to inhibit vascular leakage after muscle injury was also tested. Normally, the paw weight of saline-treated animals (controls) will increase by about 65-95% after heat injury. The increase in weight is relative to the contralateral non-heated paw.
In screening the bioactivity of new peptides, a dose of 5 mg/kg i.v. was initially used. In later studies, when greater activity was expected, a screening dose of 1 to 2 mg/kg i.v. was used.
Thus, each peptide was injected intravenously (at the amounts specified, usually 1 or 5 mg/kg, or by full dose-response analysis) 10 minutes (for 7/8-mers) or one hour (for 11-mers) before immersion of the right paw in 58° C. water, for 1 minute, and weights of both paws were obtained 30minutes later. To obtain statistical accuracy, four to six animals were used in each group. The % wt increase was calculated as (wt of heated paw--wt of unheated paw/wt of unheated paw)×100 and converted to % of the saline control group values, which were run concurrently.

[2] = test system: epinephrine-induced pulmonary edema; assay: epinephrine-induced pulmonary edema model; type: in vivo; conditions: i.v.
[3] = i.v., 11-mers, injected one hour before 58° C. water for 1 minute, paw weight 30 minutes later, Table 1
[4] = i.y. [sic], 7/8-mers, ten minute interval between administration and 58° C. water for 1 minute, edema 30 minutes after heat, Table 3
[5] = dose 5 mg/kg i.v., N.S. = not different from saline

SMILES	ED50 (95% confidence limits) [1, 3]	anti-inflammatory activity, result in words [1]	Heat-Edema % Saline Values [1, 5]	other results
CC[C@H](C)[C@H](NC(=O)[C@H](CCC(=O)c1ccc(OC)cc1)NC(=O)[C@H](CC(C)C)NC(=O)[C@H](CC(C)C)NC(=O)[C@H](CCCCN)NC(=O)[C@H](CCCNC(=N)N)NC(=O)[C@@H](Cc1ccc(O)cc1)NC(=O)[C@@H](NC(=O)[C@H](C)NC(=O)[C@H](N)CC(C)C)[C@@H](C)O)C(=O)N[C@H](CC(C)C)C(N)=O [1ATyRKLL*Il-NH2] (HELM PEPTIDE1{[dL].A.T.[dY].R.K.L.L.[COc1ccc(C(=O)CC[C@H](N[*:1])C(=O)[*:2])cc1].I.[dL].[am]}$$$$V2.0)	0.05 (0.02-0.12) mg/kg	–	–	ED50 [2]: 0.04 mg/kg
CC[C@H](C)[C@H](NC(=O)[C@H](Cc1ccc(OC)cc1)NC(=O)[C@H](CCSC)NC(=O)[C@H](CC(C)C)NC(=O)[C@H](CCCCN)NC(=O)[C@H](CCCNC(=N)N)NC(=O)[C@@H](CC(N)=O)NC(=O)[C@H](CO)NC(=O)[C@H](Cc1c[nH]cn1)NC(=O)[C@@H](C)N)C(=O)N[C@H](CC(C)C)C(N)=O [aHSnRKLMY(Me)Il-NH2] (H-[dA]HS[dN]RKLMY(Me)I[dL]-NH2)	0.16 (0.10-0.26) mg/kg	excellent anti-inflammatory potency	–	–
CC[C@H](C)[C@H](NC(=O)[C@H](CCC(=O)O)NC(=O)[C@H](CC(C)C)NC(=O)[C@H](CC(C)C)NC(=O)[C@H](CCCCN)NC(=O)[C@H](CCCNC(=N)N)NC(=O)[C@@H](CC(N)=O)NC(=O)[C@H](CO)NC(=O)[C@H](Cc1c[nH]cn1)NC(=O)[C@@H](C)N)C(=O)N[C@H](CC(C)C)C(N)=O [aHSnRKLLEIl-NH2] (HELM PEPTIDE1{[dA].H.S.[dN].R.K.L.L.E.I.[dL].[am]}$$$$V2.0)	2.2 (1.4-3.6) mg/kg	–	–	–
CC[C@H](C)[C@H](NC(=O)[C@H](CCC(=O)c1ccc(OC)cc1)NC(=O)[C@H](CC(C)C)NC(=O)[C@H](CC(C)C)NC(=O)[C@H](CCCCN)NC(=O)[C@H](CCCNC(=N)N)NC(=O)[C@@H](CC(N)=O)NC(=O)[C@H](CO)NC(=O)[C@H](Cc1c[nH]cn1)NC(=O)[C@@H](C)N)C(=O)N[C@H](CC(C)C)C(N)=O [aHSnRKLL*Il-NH2] (HELM PEPTIDE1{[dA].H.S.[dN].R.K.L.L.[COc1ccc(C(=O)CC[C@H](N[*:1])C(=O)[*:2])cc1].I.[dL].[am]}$$$$V2.0)	0.11 (0.04-0.29) mg/kg	–	–	–
CC[C@H](C)[C@H](NC(=O)[C@H](CCC(=O)c1ccc(OC)cc1)NC(=O)[C@H](CCSC)NC(=O)[C@H](CC(C)C)NC(=O)[C@H](CCCCN)NC(=O)[C@@H](N)CCCNC(=N)N)C(=O)N[C@H](CC(C)C)C(N)=O [Composition 22] (HELM PEPTIDE1{R.K.L.M.[COc1ccc(C(=O)CC[C@H](N[*:1])C(=O)[*:2])cc1].I.[dL].[am]}$$$$V2.0)	–	–	–	ED50 (95% confidence limits) [1, 4]: 1.6 (0.70-3.6) mg/kg
CC[C@H](C)[C@H](NC(=O)[C@H](CCC(=O)O)NC(=O)[C@H](CC(C)C)NC(=O)[C@H](CC(C)C)NC(=O)[C@H](CCCCN)NC(=O)[C@H](CCCNC(=N)N)NC(=O)[C@@H](Cc1ccc(O)cc1)NC(=O)[C@@H](NC(=O)[C@H](C)NC(=O)[C@H](N)CC(C)C)[C@@H](C)O)C(=O)N[C@H](CC(C)C)C(N)=O [1ATyRKLLEIl-NH2] (HELM PEPTIDE1{[dL].A.T.[dY].R.K.L.L.E.I.[dL].[am]}$$$$V2.0)	1.9 (1.1-3.8) mg/kg	–	–	–
CC[C@H](C)[C@H](NC(=O)[C@@H]1CCCN1C(=O)[C@H](CCSC)NC(=O)[C@H](CC(C)C)NC(=O)[C@H](CCCCN)NC(=O)[C@@H](N)CCCNC(=N)N)C(=O)N[C@H](CC(C)C)C(N)=O [Composition 1c] (HELM PEPTIDE1{R.K.L.M.P.I.[dL].[am]}$$$$V2.0)	–	substantially no anti-inflammatory activity	114 ± 5 % Saline Values	–
CC[C@H](C)[C@H](NC(=O)[C@H](CCC(=O)c1ccc(OC)cc1)NC(=O)[C@H](CCSC)NC(=O)[C@H](CC(C)C)NC(=O)[C@H](CCCCN)NC(=O)[C@H](CCCNC(=N)N)NC(=O)[C@@H](CC(N)=O)NC(=O)[C@H](CO)NC(=O)[C@H](Cc1c[nH]cn1)NC(=O)[C@@H](C)N)C(=O)N[C@H](CC(C)C)C(N)=O [aHSnRKLM*Il-NH2] (HELM PEPTIDE1{[dA].H.S.[dN].R.K.L.M.[COc1ccc(C(=O)CC[C@H](N[*:1])C(=O)[*:2])cc1].I.[dL].[am]}$$$$V2.0)	0.24 (0.09-0.60) mg/kg	–	–	ED50 (95% confidence limits) ([1]; i.v., 11-mers, injected one hour before 58° C. water for 1 minute, paw weight 30 minutes later, Table 1, listed as AHSNRKLM*Il-NH2): 0.88 (0.52-1.49) mg/kg; times more potent than an analogous sequence containing only L-amino acids ([1]; potency ratio): about three; ED50 [2]: 0.04 mg/kg
CC[C@H](C)[C@H](NC(=O)[C@H](C)NC(=O)[C@H](CC(C)C)NC(=O)[C@H](CC(C)C)NC(=O)[C@H](CCCCN)NC(=O)[C@@H](N)CCCNC(=N)N)C(=O)N[C@H](CC(C)C)C(N)=O [Composition 3c] (HELM PEPTIDE1{R.K.L.L.A.I.[dL].[am]}$$$$V2.0)	–	substantially no anti-inflammatory activity	100 ± 4 % Saline Values	–
CC[C@H](C)[C@H](NC(=O)[C@H](Cc1c[nH]cn1)NC(=O)[C@H](CCSC)NC(=O)[C@H](CC(C)C)NC(=O)[C@H](CCCCN)NC(=O)[C@@H](N)CCCNC(=N)N)C(=O)N[C@H](CC(C)C)C(N)=O [Composition 2c] (HELM PEPTIDE1{R.K.L.M.H.I.[dL].[am]}$$$$V2.0)	–	substantially no anti-inflammatory activity	106 ± 6 % Saline Values	–
CC[C@H](C)[C@H](NC(=O)[C@H](Cc1ccccc1)NC(=O)[C@H](CCSC)NC(=O)[C@H](CC(C)C)NC(=O)[C@H](CCCCN)NC(=O)[C@@H](N)CCCNC(=N)N)C(=O)N[C@H](CC(C)C)C(N)=O [Composition 4c] (HELM PEPTIDE1{R.K.L.M.F.I.[dL].[am]}$$$$V2.0)	–	substantially no anti-inflammatory activity	93 ± 6 % Saline Values	–
CC[C@H](C)[C@H](NC(=O)[C@H](CCC(=O)c1ccc(OC)cc1)NC(=O)[C@H](CCSC)NC(=O)[C@H](CC(C)C)NC(=O)[C@H](CCCCN)NC(=O)[C@H](CCCNC(=N)N)NC(C)=O)C(=O)N[C@H](CC(C)C)C(N)=O [Composition 28] (HELM PEPTIDE1{[ac].R.K.L.M.[COc1ccc(C(=O)CC[C@H](N[*:1])C(=O)[*:2])cc1].I.[dL].[am]}$$$$V2.0)	–	–	–	ED50 (95% confidence limits) [1, 4]: 0.46 (0.24-0.89) mg/kg
CC[C@H](C)[C@H](NC(=O)[C@@H](CCC(=O)c1ccc(OC)cc1)NC(=O)[C@H](CC(C)C)NC(=O)[C@H](CC(C)C)NC(=O)[C@H](CCCCN)NC(=O)[C@@H](N)CCCNC(=N)N)C(=O)N[C@H](CC(C)C)C(N)=O [Composition 15] (HELM PEPTIDE1{R.K.L.L.[COc1ccc(C(=O)CC[C@@H](N[*:1])C(=O)[*:2])cc1].I.[dL].[am]}$$$$V2.0)	–	–	–	Heat-Edema % Saline Values ([1]; dose 1 mg/kg i.v.): 44 ± 13 % Saline Values

— patent US5480869A, “Anti-inflammatory peptide analogs and treatment to inhibit vascular leakage in injured tissues” (The Regents of the University of California, priority 1993, dated 1996)
